In all, about 310,000 compounds went through this assay and about 2,200 (0.71%) showed an effect of 50% or more. The effect is printed as a negative number. Some of the results follow.
Biological target: human ether-à-go-go-related gene (hERG) potassium channel (human, UniProt Q12809)
Assay: primary screen, population patch clamp on CHO cells stably expressing hERG

Sequence of human ether-à-go-go-related gene (hERG) potassium channel (Q12809 whole entry, looked up): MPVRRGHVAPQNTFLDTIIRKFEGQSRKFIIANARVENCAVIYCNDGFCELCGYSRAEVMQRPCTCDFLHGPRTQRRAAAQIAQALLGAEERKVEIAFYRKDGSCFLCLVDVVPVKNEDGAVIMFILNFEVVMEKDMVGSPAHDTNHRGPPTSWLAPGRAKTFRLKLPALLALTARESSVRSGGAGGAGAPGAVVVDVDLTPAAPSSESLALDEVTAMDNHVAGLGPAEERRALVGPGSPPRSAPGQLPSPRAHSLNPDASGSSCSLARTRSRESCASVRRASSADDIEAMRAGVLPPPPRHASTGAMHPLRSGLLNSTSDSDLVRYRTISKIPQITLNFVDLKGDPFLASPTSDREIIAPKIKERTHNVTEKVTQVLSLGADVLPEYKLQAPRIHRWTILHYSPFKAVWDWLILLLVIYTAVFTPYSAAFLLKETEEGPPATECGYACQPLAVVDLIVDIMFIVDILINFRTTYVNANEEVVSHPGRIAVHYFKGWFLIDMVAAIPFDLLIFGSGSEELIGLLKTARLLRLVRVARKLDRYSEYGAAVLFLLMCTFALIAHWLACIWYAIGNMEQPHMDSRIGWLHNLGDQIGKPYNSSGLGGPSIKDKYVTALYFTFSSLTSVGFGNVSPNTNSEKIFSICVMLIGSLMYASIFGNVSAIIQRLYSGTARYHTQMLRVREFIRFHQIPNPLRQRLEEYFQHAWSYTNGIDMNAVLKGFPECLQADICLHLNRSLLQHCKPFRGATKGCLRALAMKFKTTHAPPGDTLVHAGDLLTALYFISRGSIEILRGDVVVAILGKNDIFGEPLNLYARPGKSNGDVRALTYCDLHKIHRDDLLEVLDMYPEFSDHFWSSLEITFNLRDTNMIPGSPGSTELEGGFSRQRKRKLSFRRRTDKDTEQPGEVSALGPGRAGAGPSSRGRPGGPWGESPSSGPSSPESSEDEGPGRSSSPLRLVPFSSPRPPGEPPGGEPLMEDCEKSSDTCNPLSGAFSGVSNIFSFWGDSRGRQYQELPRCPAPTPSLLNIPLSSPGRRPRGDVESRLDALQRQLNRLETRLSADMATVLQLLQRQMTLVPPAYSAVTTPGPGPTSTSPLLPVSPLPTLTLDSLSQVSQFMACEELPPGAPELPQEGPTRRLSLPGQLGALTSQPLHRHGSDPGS

Row | Structure (SMILES) | hERG current change (%, negative = inhibition) at 1uM [%]
1 | O=[N+]([O-])c1ccc(N/N=C/c2cn(Cc3ccc(F)cc3)c3ccccc23)nc1 | 11.3
2 | CC(C)Oc1ccc(Cn2c(-c3ccco3)n[nH]c2=S)cc1 | 8.54
3 | O=c1c2c3c(sc2nc2n1CCC2)CCCCC3 | 0.0069
4 | COc1ccc(Nc2nc(-c3ccccc3)cs2)cc1 | -4.43
5 | Cc1nnc(NC(=O)C2(c3ccccc3)CCOCC2)s1 | 12.6
6 | Cc1ccc(C(=O)O)cc1NC(=O)CSc1ncnc2sc3c(c12)CCC3 | -4.56
7 | COc1ccc(C(NC(=O)c2c(F)c(F)c(F)c(F)c2F)c2ccccc2)cc1 (centres unmarked) | 12.9
8 | COc1ccc(C(=O)OCCNC(=O)c2c(Cl)nc3ccccn23)cc1.Cl | 5.9
9 | CC(C)[C@]1(c2ccccc2)ON(c2ccccc2C(F)(F)F)C1=O | 8.52
10 | Cc1cccc(NC(=O)Cn2cnc3ccccc3c2=O)c1C | -4.45
11 | O=[N+]([O-])c1ccc(S(=O)(=O)NCCc2ccncc2)cc1 | -12
12 | CC1CN(C(=O)C(C)Sc2nnnn2C)CC(C)O1 (centres unmarked) | 9.36
13 | COc1ccc(/C=C(\NC(=O)c2cccs2)C(=O)NN)cc1OC | 6.72
14 | C/C(CC(=O)Nc1cc(C)ccn1)=N\NC(=O)C(=O)Nc1cccc(C)c1 | -1.47
15 | CCOCCCNS(=O)(=O)c1ccc(NC(=O)C2CC(=O)N(c3ccc(C)cc3)C2)cc1 (centres unmarked) | 11.4
16 | O=C(c1cnccn1)N1CCc2c([nH]c3ccccc23)C1c1cccc(Cl)c1 (centres unmarked) | -8.37
17 | COc1ccc(-c2oc3ccc(-c4cc(OC)c(OC)c(OC)c4)cc3c2-c2ccc(OC)nc2)cc1 | 11.4
18 | COc1cc(OC)cc(C(=O)N2CCC(N3CCN(c4ccccc4)CC3)CC2)c1 | -10.7
19 | CCOc1ccccc1/C=N/n1c(COc2ccccc2)n[nH]c1=S | 8.49

Row | Structure (SMILES) | hERG current change (%, negative = inhibition) at 1uM [%]
20 | O=C(NCCO)c1cccc(Nc2nc(-c3ccccc3)c3cc(Cl)ccc3n2)c1 | 0.423
21 | COc1cccc(CCNC(=O)c2cc(COc3c(F)cccc3F)on2)c1 | -8.43
22 | CCN(CC)CCCNC(=O)c1ccc(S(=O)(=O)Nc2ccc(C)c(C)c2)cc1 | 4.02
23 | COc1ccc(CN(C)C(=O)c2cccc(NS(=O)(=O)c3ccccc3)c2)cc1F | 0.534
24 | Cc1cccc2sc(NS(=O)(=O)c3ccccc3)nc12 | 1.07
25 | O=C(O/N=C1/CCSc2ccccc21)c1ccc(F)cc1 | 10.5
26 | CC(C)c1ccc(/C=N/NC(=O)c2nnn(-c3nonc3N)c2CN(C)C2CCCCC2)cc1 | 10.4
27 | Cc1ccc(S(=O)(=O)N2CC(O)CC2C(=O)O)cc1 (centres unmarked) | 15.9
28 | CC1CCN(CCc2nc3cc(NC(=O)COc4ccc([N+](=O)[O-])cc4)ccc3n2C)CC1 | -2.45
29 | COc1ccccc1C(=O)Nc1ccc(N2CCN(S(C)(=O)=O)CC2)cc1 | 13
30 | CC(C(=O)NC1CCCC1)N(C(=O)c1snc(C(N)=O)c1N)c1ccc2c(c1)OCCO2 (centres unmarked) | 1.93
31 | CC1=CC2=NC(=O)/C(=C\c3cn(C)c4ccccc34)C(=N)N2O1 | 4.1
32 | CCOC(=O)c1sc(NC(=S)NC(=O)c2cccc(Cl)c2)c(C(=O)OCC)c1C | 1.03
33 | COC(=O)c1ccc(=O)n(Cc2ccc3c(c2)OCO3)c1 | 15.2
34 | NC(=O)N1c2ccccc2CC(=O)c2ccccc21 | 1.72
35 | COc1cccc(OCc2nnc(SC)n2C)c1 | 3.9
36 | COc1ccc(CCNC(=O)c2ccc(Br)cc2)cc1 | 12.3
37 | c1ccc2[nH]c(CSc3nc4ccccc4s3)nc2c1 | -3.7
38 | COC(=O)c1cc(Cl)c(NC(=O)c2ccco2)cc1OC | 14.5

Row | Structure (SMILES) | hERG current change (%, negative = inhibition) at 1uM [%]
39 | Cc1nn(-c2ccccc2)c(N)c1C(c1ccccc1)c1c(C)nn(-c2ccccc2)c1N | 6.85
40 | COc1ccc(CC(=O)OCn2nnc3ccccc3c2=O)cc1 | 2.32
41 | O=C(Nc1ccc(OC(F)(F)F)cc1)C1CCCN(S(=O)(=O)c2cnc[nH]2)C1 (centres unmarked) | 9.5
42 | Cn1cc(CCCC(=O)NCc2ccccc2)c2ccccc21 | 18.4
43 | O=C(N/N=C/c1ccco1)c1cccc(N2Cc3ccccc3C2)c1 | 8.43
44 | CCc1cccc(C)c1NC(=O)C1CN(S(=O)(=O)c2ccccc2)CCN1S(=O)(=O)c1ccccc1 (centres unmarked) | -3.57
45 | COc1ccc(OC)c(N(CC(=O)NCCSCc2ccco2)S(=O)(=O)c2ccccc2)c1 | -12.2
46 | CC(=O)N1N=C(c2ccncc2)CC1c1ccccc1O (centres unmarked) | 15.6
47 | CSCCC(NC(N)=O)C(=O)Nc1ccc(F)c(Cl)c1 (centres unmarked) | 12.2
48 | S=C(c1ccc(-c2ccc(Br)cc2)o1)N1CCCCC1 | 15.2
49 | O=C(Nc1ccc(C2CC2(Cl)Cl)cc1)c1ccccc1Br (centres unmarked) | 15.1
50 | CCN(CC)C(=O)N(CC)Cc1ccccc1 | 5.22
51 | COc1ccccc1/C=N/N1CCN(c2ccc(Cl)cc2)CC1 | 10.7
52 | Cc1cccc(OCc2nnc(SCC(=O)N(c3ccccc3)C3CCS(=O)(=O)C3)o2)c1 (centres unmarked) | 0.165
53 | O=C(C1CC1(c1ccccc1)c1ccccc1)N1CCOCC1 (centres unmarked) | 2.96
54 | Cc1noc(C)c1C(=O)N1CCc2ccccc2C1 | 10.2
55 | COc1cccc(C2c3[nH]c4ccccc4c3CCN2Cc2cccn2-c2ncccn2)c1 (centres unmarked) | -37
56 | CSCCC(NC(=O)c1ccccc1Cl)C(=O)N1CCCCC1 (centres unmarked) | 9.86
